In PubChem BioAssay (NCATS):
Where “and” joins values, the source holds several entries; their conditions need not be identical. Equal entries are not always repeated. The shares of active, inactive and inconclusive entries below differ from those in the screen. For some of these results: A potency beside an inconclusive call is a rough fit, not a confirmed value. Calls of active or inactive are those of the source. Unless noted, calls come from the whole dose curve; as a rule, active = well fitted curve in the direction sought with a large enough effect; inconclusive = small, poorly fitted or top-dose-only effect, or another doubt; inactive = no such curve, though single readings can be large; an effect the other way counts as inactive or inconclusive.

Tests used:
[1] = target: 3',5'-cyclic-AMP phosphodiesterase 4B (Homo sapiens) (UniProt Q07343); assay: qHTS Assay for Inhibitors of PDE-IV (AID 607; active = well fitted activation curve with a large enough effect in the main read-out, with a control signal flat, not every such curve was filed as active; inconclusive = small, poorly fitted or top-dose-only effect, or effect the other way, or a change in a side signal; note: potency is the fitted concentration of half-maximal effect); details: HEK293 ACTOne CNG channel cells, membrane potential fluorescence; activation (PDE inhibition): at 22.9 µM (top of the series)
Summary of the method: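 Cell-based read-out of cAMP via a modified cyclic nucleotide-gated channel and membrane potential dye (535/590 nm) in HEK293 cells expressing PDE4 endogenously. Compounds tested up to 22.9 uM final; 100 uM RO 20-1724 reference.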

[2] = qHTS Assay for Lipid Storage Modulators (AID 1519; calls by dose curve; note: potency is the fitted concentration of half-maximal effect; for activity change, negative = inhibition: % is set by controls: 0 for no effect and ±100 for the full control effect); details: Drosophila S3 cells, BODIPY lipid droplet/cell ratio, laser cytometry, cells loaded with oleic acid; activity change, negative = inhibition: at 57.5 µM (top of the series) unless noted
Summary of the method: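 Cells seeded at 5,000 per well were treated with compounds over a concentration series and loaded with oleic acid (400 uM, as added). Lipid droplet fluorescence (488 nm excitation, 500-530 nm channel) was read by laser-scanning cytometry and normalized to 20 uM Triacsin C.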

[3] = target: Ubiquitin carboxyl-terminal hydrolase 1 (Homo sapiens) (UniProt O94782); assay: Inhibitors of USP1/UAF1: Pilot qHTS (AID 504865);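 note: rhodamine fluorescence freed from ubiquitin-rhodamine substrate followed over time; potency is the fitted concentration of half-maximal effect; nearly all actives have a fitted effect of over 35% in size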
Summary of the method: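 1nM USP1/UAF1 + cpd, 15 min RT; start w/ Ub-Rho 150nM final; kinetic FL 480/540 nm, 6 reads q60 s. Buffer 50mM HEPES pH 7.8, 0.5mM EDTA, 1mM TCEP, 0.01% Tween-20, 0.1 mg/ml BSA.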

[4] = target: Rap guanine nucleotide exchange factor 3 (Homo sapiens) (UniProt O95398); assay: Confirmatory qHTS for antagonist of cAMP-regulated guanine nucleotide exchange factor 3 (EPAC1) (AID 1645880); details: EPAC1 Rap1B-BODIPY-GDP exchange, fluorescence; activity, negative = inhibition: at 115 µM (top of the series); note: nearly all actives have a fitted effect of over 55% in size; note: potency is the fitted concentration of half-maximal effect;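 for activity, negative = inhibition: plate controls were DMSO only for no effect and full effect of the ATA control for full effect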
Summary of the method: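 Nucleotide exchange uses 100 nM EPAC1, 250 nM RAP1B-BODIPY-GDP and 50 uM GDP, with compounds in a concentration-titration series. After 5 min at room temperature, fluorescence (480 nm ex/540 nm em) is read every 5 min for 30 min. Data are normalized to control ATA and DMSO.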

[5] = target: Rap guanine nucleotide exchange factor 4 (Homo sapiens) (UniProt Q8WZA2); assay: Confirmatory qHTS for antagonist of cAMP-regulated guanine nucleotide exchange factor 4 (EPAC2) (AID 1645885); details: activity change, negative = inhibition: at 12.7 µM (top of the series) unless noted; note: potency is the fitted concentration of half-maximal effect; nearly all actives have a fitted effect of over 25% in size
[6] = Counterscreen for APE1 Inhibitors: Fluorescent Dye Displacement Validation Assay (AID 1707); note: potency is the fitted concentration of half-maximal effect
Summary of the method: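 Compounds are scored by their ability to displace Thiazole Orange (250 nM) from a 50 nM TAMRA-tagged duplex bearing a tetrahydrofuran abasic site. Buffer is 50 mM Tris-HCl pH7.5, 50mM NaCl, 2 mM MgCl2, 0.01% Tween-20.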

[7] = target: Endonuclease 4 (Escherichia coli (strain K12)) (UniProt P0A6C1); assay: Counterscreen for APE1 Inhibitors: qHTS Validation Assay for Inhibitors of Endonuclease IV (AID 1708); note: potency is the fitted concentration of half-maximal effect
Summary of the method: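 Cleavage of a quenched abasic-site DNA duplex (50 nM, 5'-TAMRA, 3'-BHQ-2) by 2 nM enzyme is followed as fluorescence increase. Compounds are preincubated with enzyme 15 min at room temperature before substrate addition.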

[8] = qHTS for differential inhibitors of proliferation of Plasmodium falciparum line HB3 (AID 1886); details: Potency: Plasmodium falciparum HB3 proliferation inhibition;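 note: potency is the fitted concentration of half-maximal effect; parasites grown with compound for 72 h before SYBR Green readout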
[9] = target: Ferritin light chain (Equus caballus) (UniProt P02791); assay: qHTS Validation Assay for Identification of Novel General Anesthetics (AID 2323); note: potency is the fitted concentration of half-maximal effect
Summary of the method: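 10 uM horse-spleen apoferritin + 1-AMA (50% saturated, PBS); cpd pin-transferred, 10 min RT. Ex 380/Em 535 nm endpoint. Activity normalized between free 1-AMA and 1-AMA/apoferritin; 4-parameter Hill fit of concentration-response.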

[10] = target: RecQ-like DNA helicase BLM (Homo sapiens) (UniProt P54132); assay: qHTS Validation Assay for Inhibitors of Bloom's syndrome helicase (BLM) (AID 2364); note: potency is the fitted concentration of half-maximal effect
Summary of the method: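 50 nM BLM preincubated 15 min at room temperature with compound in pH 8.0 Tris buffer containing 2.5 ug/ml poly(dI-dC); started with 200 nM TAMRA/BHQ-2 forked duplex and 2 mM ATP (final). Unwinding read as TAMRA fluorescence increase, two reads 2 h apart.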

[11] = Validation screen for small molecules that induce DNA re-replication in MCF 10A normal breast cells (AID 463097); note: potency is the fitted concentration of half-maximal effect; nearly all actives have a fitted effect of over 60% in size
Summary of the method: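 250 MCF 10A cells/well; compound pin-transferred; 48 hr, 37 C, 5% CO2; Hoechst 40 min; imaged 405/500-530 nm. Hits = more high-intensity nuclei.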

[12] = Quantitative high throughput screen for delayed death inhibitors of the malarial parasite plastid, 96 hour incubation (AID 488745); note: potency is the fitted concentration of half-maximal effect; nearly all actives have a fitted effect of over 70% in size
Summary of the method: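 Growth of reporter-bearing P. falciparum in red cells is measured after 96 h with compound, covering two erythrocytic cycles. Luminescence from the integrated luciferase serves as the growth signal.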

[13] = Quantitative high throughput screen for delayed death inhibitors of the malarial parasite plastid, 48 hour incubation (AID 488752); note: potency is the fitted concentration of half-maximal effect; nearly all actives have a fitted effect of over 65% in size
Summary of the method: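 One parasite generation (48 h, 37 C, 5% CO2) of luciferase-reporter P. falciparum in erythrocytes is run with test compound; decreased luminescence indicates inhibited growth.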

[14] = Validation screen for small molecules that induce DNA re-replication in SW480 colon adenocarcinoma cells (AID 504364); note: potency is the fitted concentration of half-maximal effect
Summary of the method: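 Cells are treated 48 hr with test compound, stained 40 min with Hoechst at 37 C, and scanned for nuclear fluorescence; compounds inducing re-replication increase nuclei with elevated intensity.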

[15] = target: Retinoic acid receptor RXR-alpha (Homo sapiens) (UniProt P19793); assay: qHTS assay for small molecule agonists of retinoid X receptor alpha signaling (AID 588544; calls by dose curve;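 note: 0% = DMSO basal wells and 100% = reference agonist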); details: HEK293T RXRa-UAS-bla, beta-lactamase reporter, 18 h; activation: at 76.7 µM (top of the series)
[16] = qHTS assay for small molecule agonists of the antioxidant response element (ARE) signaling pathway (AID 651741; active = well fitted activation curve with a large enough effect in the signal ratio; inconclusive = small, poorly fitted or top-dose-only effect, or effect the other way, or a change in a side signal; the % refers to the signal ratio; note: % of control where 0% means no effect); details: HepG2 ARE-bla reporter, beta-lactamase FRET ratio, 16 h; activation: at 96 µM (top of the series)
Summary of the method: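 HepG2 ARE-bla cells plated at 2,000 cells/well and incubated 5 h at 37 C/5% CO2 received 23 nL compound in DMSO. After 16 h at 37 C, LiveBLAzer B/G FRET substrate was applied for 2 h at room temperature and fluorescence read.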

[17] = qHTS assay for small molecule agonists of the antioxidant response element (ARE) signaling pathway measured by Nrf2-dependant transcriptional activity (AID 720636; active = well fitted curve in the direction sought with a large enough effect in the repeat runs; inconclusive = weak or mixed curves; inactive = no such curve, though single readings can be large; an effect the other way counts as inactive or inconclusive; note: potency is the fitted concentration of half-maximal effect)
Summary of the method: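 Cells: ARE-luc HepG2 with Nrf2-responsive luciferase. Medium contained 1% dialyzed FBS. Compound exposure lasted 16 hr at 37 C and 5% CO2, followed by ONE-Glo luciferase detection.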

[18] = target: Mitogen-activated protein kinase 10 (Mus musculus) (UniProt Q61831); assay: JNK3 AlphaScreen Assay (AID 530; active = well fitted curve in either direction with a large enough effect, not every such curve was filed as active; inconclusive = small, poorly fitted or top-dose-only effect, or another doubt;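 note: kinase came from lysate of stimulated human HepG2 cells; signal reports phosphorylation of biotinylated GST-cJun 1-79 at Ser73 with 10 µM ATP; % is set by controls: 0 for no effect and ±100 for the full control effect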); details: JNK3 lysate, c-Jun phosphorylation; activity change, negative = inhibition: at 57.1 µM (top of the series)
Summary of the method: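 qHTS format: compounds tested as titrations against IL-1beta/TNF-alpha-activated HepG2 lysate JNK3 with biotin-GST-cJun substrate and 10 uM ATP at room temperature. Loss of anti-phospho-cJun AlphaScreen signal indicates inhibition.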

[19] = qHTS Assay for Identification of Small Molecule Agonists for Hypoxia Response Element Signaling Pathway (AID 914; active = well fitted activation curve with a large enough effect in the signal ratio, with a control signal flat, not every such curve was filed as active; inconclusive = small, poorly fitted or top-dose-only effect, or effect the other way, or a change in a side signal; the % refers to the signal ratio; note: top concentration of the series differs between compounds; % of control where 0% means no effect); details: ME-180 (cervical carcinoma) HRE-bla reporter, beta-lactamase ratio, CoCl2, 17 h; activation: hits give high values
Summary of the method: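 Read-out: CCF4 FRET ratio of 460nm to 530nm emission (excitation 405nm) after 2.5 hours at room temperature, taken from HRE-bla ME-180 cells that had been exposed to compound and EC50 CoCl2 for 17 hours.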
Tags give direction and shape of the fitted curve.

UniProt O94782, sequence (O94782 whole entry, looked up): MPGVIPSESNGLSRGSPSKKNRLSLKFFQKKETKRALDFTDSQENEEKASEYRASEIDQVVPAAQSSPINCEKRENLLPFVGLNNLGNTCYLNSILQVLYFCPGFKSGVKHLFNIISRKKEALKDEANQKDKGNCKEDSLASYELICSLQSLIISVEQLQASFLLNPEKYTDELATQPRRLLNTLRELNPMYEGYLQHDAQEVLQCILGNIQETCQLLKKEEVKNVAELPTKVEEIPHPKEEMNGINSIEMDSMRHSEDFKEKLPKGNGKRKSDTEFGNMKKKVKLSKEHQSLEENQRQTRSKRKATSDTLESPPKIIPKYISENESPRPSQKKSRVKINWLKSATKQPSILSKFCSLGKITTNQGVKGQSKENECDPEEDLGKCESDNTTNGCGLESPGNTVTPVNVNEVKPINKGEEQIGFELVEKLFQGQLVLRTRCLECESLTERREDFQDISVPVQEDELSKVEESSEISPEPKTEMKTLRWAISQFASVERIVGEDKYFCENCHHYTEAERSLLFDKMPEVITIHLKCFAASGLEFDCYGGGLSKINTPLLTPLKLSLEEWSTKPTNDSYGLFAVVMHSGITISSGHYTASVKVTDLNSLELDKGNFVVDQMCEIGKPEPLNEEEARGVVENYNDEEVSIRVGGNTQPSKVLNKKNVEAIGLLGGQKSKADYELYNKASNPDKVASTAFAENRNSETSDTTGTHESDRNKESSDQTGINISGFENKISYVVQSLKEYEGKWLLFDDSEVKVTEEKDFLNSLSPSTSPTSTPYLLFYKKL
UniProt O95398, sequence (O95398 whole entry, looked up): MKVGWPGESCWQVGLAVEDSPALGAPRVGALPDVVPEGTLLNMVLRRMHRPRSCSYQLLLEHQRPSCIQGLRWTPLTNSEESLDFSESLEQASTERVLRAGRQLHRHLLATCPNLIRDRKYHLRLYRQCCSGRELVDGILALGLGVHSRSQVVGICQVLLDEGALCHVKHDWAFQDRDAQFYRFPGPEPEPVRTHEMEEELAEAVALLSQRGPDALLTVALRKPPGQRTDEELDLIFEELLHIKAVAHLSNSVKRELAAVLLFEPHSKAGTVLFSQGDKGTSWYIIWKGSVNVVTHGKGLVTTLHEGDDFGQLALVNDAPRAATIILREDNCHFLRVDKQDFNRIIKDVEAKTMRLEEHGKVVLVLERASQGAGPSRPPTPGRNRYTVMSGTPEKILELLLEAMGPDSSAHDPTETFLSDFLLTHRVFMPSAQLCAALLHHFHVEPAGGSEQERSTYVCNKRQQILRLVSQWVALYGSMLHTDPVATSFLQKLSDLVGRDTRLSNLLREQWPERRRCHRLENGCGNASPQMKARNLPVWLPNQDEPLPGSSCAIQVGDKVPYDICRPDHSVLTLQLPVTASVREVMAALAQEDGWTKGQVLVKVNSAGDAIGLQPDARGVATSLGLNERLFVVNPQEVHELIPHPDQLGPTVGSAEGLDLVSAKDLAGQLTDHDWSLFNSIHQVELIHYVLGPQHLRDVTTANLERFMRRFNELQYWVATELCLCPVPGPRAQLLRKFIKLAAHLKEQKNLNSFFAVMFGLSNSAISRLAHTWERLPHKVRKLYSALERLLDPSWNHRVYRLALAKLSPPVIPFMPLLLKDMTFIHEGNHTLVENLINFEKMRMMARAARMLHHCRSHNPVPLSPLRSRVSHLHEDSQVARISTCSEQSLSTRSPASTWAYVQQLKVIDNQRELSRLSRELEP
UniProt Q07343, sequence (Q07343 whole entry, looked up): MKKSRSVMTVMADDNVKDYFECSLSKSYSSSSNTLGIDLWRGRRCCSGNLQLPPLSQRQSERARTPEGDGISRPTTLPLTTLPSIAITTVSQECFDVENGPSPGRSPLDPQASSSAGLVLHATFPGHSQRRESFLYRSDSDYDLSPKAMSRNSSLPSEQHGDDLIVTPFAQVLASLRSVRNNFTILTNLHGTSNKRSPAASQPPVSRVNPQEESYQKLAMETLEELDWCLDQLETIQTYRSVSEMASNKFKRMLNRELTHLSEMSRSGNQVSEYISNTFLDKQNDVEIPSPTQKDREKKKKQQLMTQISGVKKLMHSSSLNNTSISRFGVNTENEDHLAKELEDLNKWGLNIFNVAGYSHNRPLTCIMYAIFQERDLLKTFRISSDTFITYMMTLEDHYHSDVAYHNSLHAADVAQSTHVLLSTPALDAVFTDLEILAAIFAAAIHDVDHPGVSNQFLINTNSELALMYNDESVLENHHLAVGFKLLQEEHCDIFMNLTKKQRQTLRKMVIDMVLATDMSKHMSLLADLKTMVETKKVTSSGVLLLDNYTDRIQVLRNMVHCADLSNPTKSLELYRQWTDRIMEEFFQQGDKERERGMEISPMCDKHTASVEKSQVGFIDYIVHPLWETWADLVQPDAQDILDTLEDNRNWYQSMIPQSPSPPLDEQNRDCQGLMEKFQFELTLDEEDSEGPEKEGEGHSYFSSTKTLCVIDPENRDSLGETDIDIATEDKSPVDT
UniProt Q8WZA2, sequence (Q8WZA2 whole entry, looked up): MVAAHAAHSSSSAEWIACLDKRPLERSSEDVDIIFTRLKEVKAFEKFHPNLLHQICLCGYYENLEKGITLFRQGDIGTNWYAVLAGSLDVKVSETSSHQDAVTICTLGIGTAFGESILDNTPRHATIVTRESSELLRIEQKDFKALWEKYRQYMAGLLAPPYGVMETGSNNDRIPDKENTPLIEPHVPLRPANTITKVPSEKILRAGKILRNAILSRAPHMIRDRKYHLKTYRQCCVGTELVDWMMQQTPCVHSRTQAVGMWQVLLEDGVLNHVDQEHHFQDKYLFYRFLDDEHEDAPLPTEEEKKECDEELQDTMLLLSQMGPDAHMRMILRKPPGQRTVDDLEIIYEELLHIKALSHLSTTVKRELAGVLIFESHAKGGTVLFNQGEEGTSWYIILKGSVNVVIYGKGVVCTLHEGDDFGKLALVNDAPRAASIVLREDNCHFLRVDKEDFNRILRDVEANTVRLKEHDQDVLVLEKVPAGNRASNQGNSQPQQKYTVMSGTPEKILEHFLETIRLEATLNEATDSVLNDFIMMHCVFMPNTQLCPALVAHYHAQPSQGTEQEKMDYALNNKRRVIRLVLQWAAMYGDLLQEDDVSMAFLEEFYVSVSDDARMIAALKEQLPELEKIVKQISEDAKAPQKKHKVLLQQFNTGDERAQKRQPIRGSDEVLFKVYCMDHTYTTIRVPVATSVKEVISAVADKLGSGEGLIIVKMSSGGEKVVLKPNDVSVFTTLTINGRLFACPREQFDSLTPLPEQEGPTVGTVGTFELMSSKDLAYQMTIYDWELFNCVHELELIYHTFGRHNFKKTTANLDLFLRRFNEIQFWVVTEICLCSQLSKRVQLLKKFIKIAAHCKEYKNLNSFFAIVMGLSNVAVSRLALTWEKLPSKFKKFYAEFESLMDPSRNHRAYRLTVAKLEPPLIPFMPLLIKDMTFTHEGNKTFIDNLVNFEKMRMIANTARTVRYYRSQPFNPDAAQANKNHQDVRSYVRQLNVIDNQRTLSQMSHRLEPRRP
UniProt P02791, sequence (P02791 whole entry, looked up): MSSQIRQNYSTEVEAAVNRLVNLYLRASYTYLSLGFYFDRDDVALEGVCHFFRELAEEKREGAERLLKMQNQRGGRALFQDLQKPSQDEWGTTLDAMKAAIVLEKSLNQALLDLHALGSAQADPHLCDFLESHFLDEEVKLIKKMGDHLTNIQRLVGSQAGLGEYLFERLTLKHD
UniProt P54132, sequence (P54132 whole entry, looked up): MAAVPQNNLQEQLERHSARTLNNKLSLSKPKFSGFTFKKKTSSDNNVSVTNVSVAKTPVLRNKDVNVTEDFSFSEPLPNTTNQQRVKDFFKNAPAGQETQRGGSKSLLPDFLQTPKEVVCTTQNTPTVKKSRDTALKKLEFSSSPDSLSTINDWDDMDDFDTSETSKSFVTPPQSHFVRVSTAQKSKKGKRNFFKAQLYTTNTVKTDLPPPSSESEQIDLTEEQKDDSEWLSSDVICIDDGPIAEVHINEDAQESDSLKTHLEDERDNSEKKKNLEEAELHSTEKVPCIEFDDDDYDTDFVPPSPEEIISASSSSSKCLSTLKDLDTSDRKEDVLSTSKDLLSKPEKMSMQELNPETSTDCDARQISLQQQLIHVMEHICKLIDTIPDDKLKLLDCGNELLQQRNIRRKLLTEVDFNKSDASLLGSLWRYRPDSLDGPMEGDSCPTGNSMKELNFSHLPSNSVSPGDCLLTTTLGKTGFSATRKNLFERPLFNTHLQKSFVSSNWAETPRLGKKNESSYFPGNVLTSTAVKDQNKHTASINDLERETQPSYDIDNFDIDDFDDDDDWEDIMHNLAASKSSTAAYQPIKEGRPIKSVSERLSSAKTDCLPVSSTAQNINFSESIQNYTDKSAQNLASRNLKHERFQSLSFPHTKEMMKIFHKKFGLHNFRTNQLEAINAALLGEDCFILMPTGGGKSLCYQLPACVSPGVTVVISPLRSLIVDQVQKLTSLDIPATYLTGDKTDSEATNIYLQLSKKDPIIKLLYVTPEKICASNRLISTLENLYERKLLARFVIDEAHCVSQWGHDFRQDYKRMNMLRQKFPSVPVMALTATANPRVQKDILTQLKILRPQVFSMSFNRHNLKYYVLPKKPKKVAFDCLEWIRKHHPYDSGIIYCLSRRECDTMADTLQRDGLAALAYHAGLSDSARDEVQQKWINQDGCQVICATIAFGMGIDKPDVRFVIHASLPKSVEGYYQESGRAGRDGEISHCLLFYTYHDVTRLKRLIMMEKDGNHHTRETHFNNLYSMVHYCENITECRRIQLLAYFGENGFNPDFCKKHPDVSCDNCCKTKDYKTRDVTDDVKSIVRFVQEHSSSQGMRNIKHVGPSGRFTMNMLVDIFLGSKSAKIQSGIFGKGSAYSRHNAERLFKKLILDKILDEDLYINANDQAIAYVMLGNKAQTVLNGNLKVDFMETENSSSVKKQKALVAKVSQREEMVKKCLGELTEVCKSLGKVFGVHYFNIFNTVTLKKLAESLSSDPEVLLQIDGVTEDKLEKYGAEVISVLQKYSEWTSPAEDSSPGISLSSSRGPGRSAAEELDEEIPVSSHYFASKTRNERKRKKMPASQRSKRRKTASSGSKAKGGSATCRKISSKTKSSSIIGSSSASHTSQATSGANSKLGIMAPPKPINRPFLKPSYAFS

CC(C)[C@H](CO)Nc1nc(Nc2cc(N)cc(Cl)c2)c2ncn(C(C)C)c2n1
Potency [1]: inconclusive: 15.1 µM [activator, partial curve]
Potency [2]: inconclusive: 20 µM [rising, single point]
Potency [3]: inconclusive: 56.2 µM [inhibitor, partial curve, poor fit]
Potency [4]: inconclusive: 44.4 µM [inhibitor, partial curve]
Potency [5]: inconclusive: 44.1 µM [inhibitor, partial curve]

FC(F)(F)c1cc(CO[C@H]2CCCN[C@H]2c2ccccc2)cc(C(F)(F)F)c1
Potency [1]: inconclusive: 15.1 µM [rising, partial curve]
activity change, negative = inhibition [2]: inconclusive: 6.38%
Potency [6]: inconclusive: 35.5 µM [inhibitor, single point]
Potency [7]: inconclusive: 25.1 µM [inhibitor, partial curve, poor fit]
Potency [8]: active: 12.6 µM
Potency [9]: inconclusive: 22.4 µM [inhibitor, partial curve]
Potency [10]: inconclusive: 0.0004 µM [inhibitor, full curve, poor fit]
Potency [11]: inconclusive: 10 µM [activator, partial curve]
Potency [12]: inconclusive: 16.5 µM [inhibitor, single point]
Potency [13]: inconclusive: 9.28 µM [inhibitor, single point]
Potency [14]: inconclusive: 2.91 µM [activator, partial curve, poor fit]
Potency [3]: inconclusive: 56.2 µM [inhibitor, partial curve, poor fit]

CC(C)=CCC/C(C)=C/CC/C(C)=C/CO
activity change, negative = inhibition [2]: inconclusive: 5.52% and inconclusive: 9.12%
Potency [3]: inconclusive: 63.1 µM [inhibitor, partial curve, poor fit]
activation [15]: inconclusive: -20.8%
activation [16]: inconclusive: 1.92%
Potency [17]: inconclusive: 6.86 µM [activator, full curve, poor fit]
Potency [4]: inconclusive: 55.9 µM [inhibitor, partial curve]
Potency [5]: active: 31.2 µM

O=C(c1cccc(F)c1)N1CCC2(CCCN(c3cccc(-c4ccccc4)c3)C2)CC1
Potency [18]: inactive
activation [19]: inconclusive: -24.6%
activity change, negative = inhibition [2]: inconclusive: -39.5%
Potency [4]: inactive
